Consider 167 variants from the RNAGym collection of RNA variant scans (doi:10.7554/elife.90254).

Read counts are not given, so values of variants with three or more changes are uncertain.

B1: LINE1-mini (parent)
chain: GGCAGAGCUCAACACAGCGUGGCAAAGUGGCUGUGGCUAGACUGCC

The data set covers variants of B1. The experiment in a line: self-cleavage, relative activity (ratio to wild type); higher = more cleavage; in vitro, sequencing; the parent is a self-cleaving ribozyme.
For the variant G1C C3U C8A C23U, the self-cleavage stood at 0.21.

G1C A4U C8A A24G A26G G33A C42A: the self-cleavage was determined as 0.07.

On to G1C C8A A11C G17C G22C G33C U38A U43A, for which the self-cleavage turned out to be 0.

For G1C A6U U32G U34C C42A, the self-cleavage is 0.01.

In the case of G1C C3U A16U, the self-cleavage stood at 0.02.

In the case of G1C A16C G33U G36U G44U, the self-cleavage came out at 0.

With G1A G22C C37U, the self-cleavage amounted to 0.04.

Consider G1C C10A C42G C46G, for which the self-cleavage was determined as 0.

For the variant G1C A4U G17U G19U U34G C46U, the self-cleavage was determined as 0.03.

Turning to G1C C8G C18A A26G U32A, the self-cleavage was 0.

As to G1C C13A G19C C46U, the self-cleavage was found to be 0.

Turning to G1A G36C G40U, the self-cleavage is 0.13.

G1A G21C G40A: the self-cleavage was 0.15.

For G1A U20A U32C, the self-cleavage was 0.11.

With G1C A4G G7U G29A C45A, the self-cleavage was 0.01.

Take G1C C13A A14C G22C A25U A26G G30A: the self-cleavage stood at 0.02.

G1C A4U A11U A16G G35C C37A C45G: the self-cleavage was found to be 0.01.

With G1A U9A G21A A26U, the self-cleavage worked out at 0.26.

As for G1C C8A C42U, the self-cleavage was 0.02.

As to G1C A4U G22C C31A C46G, the self-cleavage was found to be 0.05.

G1C C8U U32A C42U: the self-cleavage came to 0.02.

In the case of G1A U20G C31G C37G U38G G40U, the self-cleavage turned out to be 0.04.

As for G1C C10A A41G, the self-cleavage stood at 0.

G1A U20A C23G G27C G44A: the self-cleavage turned out to be 0.04.

On to G1C A16C G27U C31U U32G, for which the self-cleavage was 0.03.

Turning to G1C C3U G17A C23A G27A G29C U34A, the self-cleavage came out at 0.05.

For G1A U9G A24G, the self-cleavage was found to be 0.17.

As to G1C A24G C31G G35A, the self-cleavage was determined as 0.01.

With G1A U32A U43A, the self-cleavage was 0.01.

Regarding G1A U32A U43C, the self-cleavage was 0.04.

On to G1A U32A G33C, for which the self-cleavage is 0.04.

For G1C C10U A24U G29U, the self-cleavage stood at 0.02.

With G1C C10U G22A C46U, the self-cleavage stood at 0.03.

Regarding G1C C8A A16C A25G U28G U32G G40U, the self-cleavage amounted to 0.01.

As to G1C C13G C31U G44U, the self-cleavage is 0.01.

G1C A11C C15A G21A C23U: the self-cleavage is 0.01.

Regarding G1C A6G C15G, the self-cleavage stood at 0.02.

As to G1C A11C U43A, the self-cleavage was 0.01.

G1C A6C C15G U20G G40U U43A: the self-cleavage worked out at 0.

With G1C C10A G21U, the self-cleavage came out at 0.04.

With G1C C3G U9A C13G G19U G40A, the self-cleavage amounted to 0.12.

Regarding G1C A16U G36C, the self-cleavage was 0.02.

With G1A G21U C45U, the self-cleavage was found to be 0.57.

In the case of G1C A12U C15U G40A C46A, the self-cleavage stood at 0.01.

As to G1C A4U G17C G33U U34G, the self-cleavage turned out to be 0.01.

With G1C A16C G17U C23G U38A G40A, the self-cleavage turned out to be 0.01.

Take G1C A12C G17U G21A A25C C37G C42G C45U: the self-cleavage was found to be 0.

With G1C C3G G7U C10A G19U C31G, the self-cleavage is 0.03.

Consider G1A U20A A26G, for which the self-cleavage is 0.01.

For the variant G1A U32A G35U, the self-cleavage turned out to be 0.04.

As to G1C C10U C15U U20C G22A G35U, the self-cleavage came out at 0.02.

G1C A14G U20A A26U: the self-cleavage is 0.01.

On to G1C A14U C23U C31A, for which the self-cleavage worked out at 0.02.

On to G1A G30A U38G C42A, for which the self-cleavage was found to be 0.

As to G1C A4C A26C, the self-cleavage worked out at 0.02.

Turning to G1C C10A C13G, the self-cleavage turned out to be 0.

Regarding G1C A4U A11G G33A U34A G36U A41U, the self-cleavage amounted to 0.01.

Consider G1A G30A C46A, for which the self-cleavage worked out at 0.86.

Turning to G1C A25C A26C G40U, the self-cleavage was 0.01.

Take G1A U9C G36A U38A: the self-cleavage came out at 0.12.

Take G1C A16G G30C U34G: the self-cleavage came out at 0.02.

On to G1A G27C G36C, for which the self-cleavage is 0.07.

On to G1C A26C U43A, for which the self-cleavage turned out to be 0.03.

Consider G1C A24U U34G U38G, for which the self-cleavage amounted to 0.02.

On to G1C C13G C37G, for which the self-cleavage is 0.02.

Take G1C C8A G19A A24C: the self-cleavage came out at 0.03.

Turning to G1C A11C A12U A39U G44A, the self-cleavage was determined as 0.01.

Regarding G1C A4C G7U A41C, the self-cleavage was determined as 0.16.

Consider G1A U9G U43A, for which the self-cleavage was found to be 0.16.

On to G1C C10A U32A C46A, for which the self-cleavage amounted to 0.

Regarding G1C C10U C13A G17A A41G C42A, the self-cleavage stood at 0.02.

In the case of G1A G27U G30C G33C U43A, the self-cleavage came out at 0.03.

Turning to G1C C8U A25U U28C U43A, the self-cleavage was determined as 0.01.

Turning to G1A G21U G40U, the self-cleavage stood at 0.5.

Regarding G1C A6U A41G C46U, the self-cleavage was 0.31.

G1C A4C C13U A25U G40U: the self-cleavage was 0.02.

For G1A G22A U34G, the self-cleavage turned out to be 1.38.

G1C A16G A24U: the self-cleavage worked out at 0.16.

Take G1C C3U A24C G44U: the self-cleavage came to 0.01.

With G1C A6C G17C G35U, the self-cleavage was 0.03.

Turning to G1A U9G C23G A26C G36C, the self-cleavage was 0.35.

As for G1C A4G C8A C13G C37G G40A, the self-cleavage turned out to be 0.09.

On to G1A G35U C37A, for which the self-cleavage was found to be 0.11.

Regarding G1C C8U C23U G36C, the self-cleavage came out at 0.03.

With G1C A6U C23A, the self-cleavage turned out to be 0.05.

On to G1C A6C C10A C23A, for which the self-cleavage was determined as 0.01.

G1A U28A U34G C45U: the self-cleavage was 0.01.

For the variant G1C A14C G30U G33A, the self-cleavage is 0.01.

As for G1C A11U U28G, the self-cleavage was determined as 0.02.

With G1C C8A G44U, the self-cleavage was found to be 0.06.

As to G1C A4G U20G U34C, the self-cleavage amounted to 0.01.

Regarding G1A U9A U32G C42A C46U, the self-cleavage stood at 0.21.

On to G1C C8U U20C, for which the self-cleavage worked out at 0.02.

Consider G1C A11U G40U, for which the self-cleavage was determined as 0.01.

In the case of G1A U20A A39U, the self-cleavage came to 0.67.

Regarding G1C A39U C42A, the self-cleavage came out at 0.01.

G1A U9G G27A U32C C42G: the self-cleavage was determined as 0.01.

For the variant G1C A12G G33C, the self-cleavage was found to be 0.01.

For G1C A4C A11U U43G, the self-cleavage stood at 0.

Regarding G1C A25G G36C, the self-cleavage came to 0.

As to G1C A6C C15A C23A, the self-cleavage was 0.02.

In the case of G1A U20G G29A G30C, the self-cleavage was found to be 0.1.

For the variant G1C A16C A24U, the self-cleavage was found to be 0.01.

In the case of G1C A25G A26C G29A C31G, the self-cleavage worked out at 0.01.

Turning to G1A G27U U34C, the self-cleavage came out at 0.03.

G1C A14G C18A G21C: the self-cleavage was 0.01.

Consider G1C C10G A26C G30U, for which the self-cleavage came to 0.01.

As for G1C C8U G19A C37U, the self-cleavage was determined as 0.

Turning to G1A U38G C42U, the self-cleavage came out at 0.07.

Turning to G1C A16G U38C, the self-cleavage was 0.02.

For G1A G21U G22C G33A G40C, the self-cleavage amounted to 0.03.

Consider G1A U9A G40A, for which the self-cleavage was determined as 0.08.

G1C C10A C18A C46U: the self-cleavage amounted to 0.01.

Turning to G1A U9A A11U G33U A41G C42G, the self-cleavage stood at 0.01.

As for G1A U38A A39G, the self-cleavage is 0.09.

Take G1C C8A A16U C37G U43A: the self-cleavage stood at 0.02.

For G1A U20G C45U, the self-cleavage was 0.11.

Consider G1A G22A A25G U32A G40U C45A, for which the self-cleavage is 0.08.

Regarding G1C A4U C8A, the self-cleavage came out at 0.16.

On to G1C A16G C37G, for which the self-cleavage stood at 0.02.

In the case of G1A U20A G27A U38C, the self-cleavage is 0.29.

Regarding G1C C8A A14U G27A G33A, the self-cleavage was determined as 0.04.

As for G1A G36U C46U, the self-cleavage stood at 0.07.

Take G1C A39U C46G: the self-cleavage came out at 0.14.

In the case of G1C A12C G30A U32A, the self-cleavage amounted to 0.

Take G1C C3A C18A G19U U43A: the self-cleavage is 0.03.

As for G1A U9C A14U U20A G21A C31U C45A, the self-cleavage is 0.02.

As to G1C C3G A14U G17U A24G A41U, the self-cleavage was 0.03.

In the case of G1C A16C A26G, the self-cleavage was 0.08.

As for G1C C3G G19U G29U C31A, the self-cleavage amounted to 0.05.

As to G1C C10A A14U A26U U28A C37U, the self-cleavage was 0.01.

On to G1C C10U G19A A39U A41U G44U, for which the self-cleavage came out at 0.02.

In the case of G1C C3U A16G G19C, the self-cleavage stood at 0.03.

Take G1C C10U G22U U38C: the self-cleavage stood at 0.05.

Turning to G1C C3G A16C C18A G30A, the self-cleavage stood at 0.02.

As to G1C A11U U32A U38G G44A, the self-cleavage stood at 0.

As for G1C C10G C15A U20G G33A C37G G40U, the self-cleavage turned out to be 0.

Regarding G1A G40U C42A, the self-cleavage turned out to be 0.05.

Take G1C A14G A41U: the self-cleavage amounted to 0.05.

For G1C A14G A41C, the self-cleavage was 0.03.

As to G1C C10A C31A G40A A41G C42A, the self-cleavage was found to be 0.

Turning to G1C C10G C18A, the self-cleavage came out at 0.

Take G1C A12U A14U A25U U32C G40U: the self-cleavage was determined as 0.

Take G1C C13A G21U G35U: the self-cleavage came to 0.13.

Take G1A G29C C31G: the self-cleavage is 2.21.

Turning to G1A U34A A39U C45G, the self-cleavage amounted to 0.08.

As for G1A U9G C10U U20A, the self-cleavage is 0.07.

For G1C A6U G21U, the self-cleavage was 0.19.

As to G1C C10A C15A G36A, the self-cleavage was found to be 0.02.

With G1C A12U C46A, the self-cleavage is 0.05.

For the variant G1C A11U C13G A14G, the self-cleavage amounted to 0.04.

Consider G1C C10A C13U U34A A39C, for which the self-cleavage was found to be 0.

In the case of G1A U9G C13A C18A A26U G44U, the self-cleavage is 0.25.

For the variant G1C A11C G40U U43G, the self-cleavage came to 0.01.

On to G1C A16U C18G G27U, for which the self-cleavage amounted to 0.04.

For G1A G27U C31A, the self-cleavage stood at 0.11.

In the case of G1C C10U G33A U43G, the self-cleavage was found to be 0.01.

For G1C A4U G33C C45A, the self-cleavage stood at 0.06.

For G1A U9C G17U A39G, the self-cleavage was 0.03.

With G1A U9C A14U C31U, the self-cleavage came out at 0.07.

On to G1C A14G G17C U28C U32G C42A, for which the self-cleavage is 0.02.

For the variant G1A G27A G29U, the self-cleavage was 1.29.

Turning to G1C C8G G19U G27U A41U, the self-cleavage came to 0.03.

On to G1C A11G U20A C23U, for which the self-cleavage was 0.

With G1C C10U G17U A39G, the self-cleavage worked out at 0.

As to G1C A16C A24G G36C, the self-cleavage was found to be 0.01.

Take G1C A12C C15G U34C: the self-cleavage turned out to be 0.02.
